Results published in the supplement of paper PMC11148083.
Converted amounts (≈) assume the structure as drawn. “And” between values parts separate entries of the source, which are not always exact repeats. Equal values may be shown once. ± gives the standard deviation of the averaged measurements. MIC of E. coli strains with or without a β-lactamase plasmid, in LB (broth microdilution, 22 h, 37 °C, OD600 below 0.2; fosfomycin by agar dilution); pBAD18 genes induced with arabinose where stated. Higher = less susceptible. No active / inactive call. Values are arithmetic means of replicate MICs, so they fall between dilution steps. Colistin is a mixture; one drawing stands for it.

What was measured:
Escherichia coli ECOR27 = assay: Broth microdilution in LB (fosfomycin: agar dilution), 22 h at 37 °C; MIC = lowest dose with OD600 below 0.2.
Escherichia coli ECOR42 = assay: as above
Escherichia coli ECOR49 = assay: as above
Escherichia coli ECOR47 = assay: as above
Escherichia coli ECOR35 = assay: as above
Escherichia coli ECOR01 = assay: as above
Escherichia coli ECOR61 = assay: as above
Escherichia coli ECOR53 = assay: as above
Escherichia coli J53 = assay: as above
[1] = system: Escherichia coli BW25113 (arabinose: 0.5% w/v); assay: as above
Escherichia coli ECOR70 = assay: as above
[2] = system: Escherichia coli BW25113 (arabinose: 0.5% w/v); assay: Agar dilution on LB agar with 25 mg/L glucose-6-phosphate.

C[C@@H](O)[C@H]1C(=O)N2C(C(=O)O)=C(S[C@@H]3CN[C@H](C(=O)Nc4cccc(C(=O)O)c4)C3)[C@H](C)[C@H]12 [ertapenem]
Conditions | MIC
Escherichia coli ECOR01, plasmid: none | 0.015 µg/mL (≈ 0.0315 µM)
Escherichia coli ECOR01, plasmid: pUN4 empty | 0.0175 ± 0.0061 µg/mL (≈ 0.0368 µM)
Escherichia coli ECOR01, plasmid: pUN4 with blaCTX-M-15 | 0.227 ± 0.15 µg/mL (≈ 0.477 µM)
Escherichia coli ECOR01, plasmid: pUN4 with blaOXA-48 | 0.146 ± 0.051 µg/mL (≈ 0.307 µM)
Escherichia coli ECOR27, plasmid: none | 0.00967 ± 0.0041 µg/mL (≈ 0.0203 µM)
Escherichia coli ECOR27, plasmid: pUN4 empty | 0.0175 ± 0.0061 µg/mL (≈ 0.0368 µM)
Escherichia coli ECOR27, plasmid: pUN4 with blaCTX-M-15 | 0.125 µg/mL (≈ 0.263 µM)
Escherichia coli ECOR27, plasmid: pUN4 with blaOXA-48 | 3.33 ± 1 µg/mL (≈ 7.01 µM)
Escherichia coli ECOR35, plasmid: none | 0.007 µg/mL (≈ 0.0147 µM)
Escherichia coli ECOR35, plasmid: pUN4 empty | 0.015 µg/mL (≈ 0.0315 µM)
Escherichia coli ECOR35, plasmid: pUN4 with blaCTX-M-15 | 0.0708 ± 0.026 µg/mL (≈ 0.149 µM)
Escherichia coli ECOR35, plasmid: pUN4 with blaOXA-48 | 1.08 ± 0.49 µg/mL (≈ 2.28 µM)
Escherichia coli ECOR42, plasmid: none | 0.113 ± 0.11 µg/mL (≈ 0.238 µM)
Escherichia coli ECOR42, plasmid: pUN4 empty | 0.0175 ± 0.0061 µg/mL (≈ 0.0368 µM)
Escherichia coli ECOR42, plasmid: pUN4 with blaCTX-M-15 | 0.312 ± 0.15 µg/mL (≈ 0.655 µM)
Escherichia coli ECOR42, plasmid: pUN4 with blaOXA-48 | 2 µg/mL (≈ 4.21 µM)
Escherichia coli ECOR47, plasmid: none | 0.0262 ± 0.022 µg/mL (≈ 0.0552 µM)
Escherichia coli ECOR47, plasmid: pUN4 empty | 0.0225 ± 0.018 µg/mL (≈ 0.0473 µM)
Escherichia coli ECOR47, plasmid: pUN4 with blaCTX-M-15 | 0.207 ± 0.075 µg/mL (≈ 0.435 µM)
Escherichia coli ECOR47, plasmid: pUN4 with blaOXA-48 | 3.33 ± 1 µg/mL (≈ 7.01 µM)
Escherichia coli ECOR49, plasmid: none | 0.0488 ± 0.099 µg/mL (≈ 0.103 µM)
Escherichia coli ECOR49, plasmid: pUN4 empty | 0.015 µg/mL (≈ 0.0315 µM)
Escherichia coli ECOR49, plasmid: pUN4 with blaCTX-M-15 | 0.0658 ± 0.031 µg/mL (≈ 0.138 µM)
Escherichia coli ECOR49, plasmid: pUN4 with blaOXA-48 | 1.5 ± 0.55 µg/mL (≈ 3.15 µM)
Escherichia coli ECOR53, plasmid: none | 0.015 µg/mL (≈ 0.0315 µM)
Escherichia coli ECOR53, plasmid: pUN4 empty | 0.015 µg/mL (≈ 0.0315 µM)
Escherichia coli ECOR53, plasmid: pUN4 with blaCTX-M-15 | 0.237 ± 0.2 µg/mL (≈ 0.498 µM)
Escherichia coli ECOR53, plasmid: pUN4 with blaOXA-48 | 6 ± 2.2 µg/mL (≈ 12.6 µM)
Escherichia coli ECOR61, plasmid: none | 0.007 µg/mL (≈ 0.0147 µM)
Escherichia coli ECOR61, plasmid: pUN4 empty | 0.015 µg/mL (≈ 0.0315 µM)
Escherichia coli ECOR61, plasmid: pUN4 with blaCTX-M-15 | 0.205 ± 0.15 µg/mL (≈ 0.431 µM)
Escherichia coli ECOR61, plasmid: pUN4 with blaOXA-48 | 0.188 ± 0.069 µg/mL (≈ 0.394 µM)
Escherichia coli ECOR70, plasmid: none | 0.007 µg/mL (≈ 0.0147 µM)
Escherichia coli ECOR70, plasmid: pUN4 empty | 0.0137 ± 0.0033 µg/mL (≈ 0.0287 µM)
Escherichia coli ECOR70, plasmid: pUN4 with blaCTX-M-15 | 0.0975 ± 0.081 µg/mL (≈ 0.205 µM)
Escherichia coli ECOR70, plasmid: pUN4 with blaOXA-48 | 1.17 ± 0.41 µg/mL (≈ 2.45 µM)
Escherichia coli J53, plasmid: none | 0.03 µg/mL and 0.02 µg/mL
Escherichia coli J53, plasmid: pOXA-48 DEL (blaOXA-48 not expressed) | 0.015 µg/mL (≈ 0.0315 µM)
Escherichia coli J53, plasmid: pOXA-48 PV-B (blaOXA-48) | 1 µg/mL (≈ 2.1 µM)
Escherichia coli J53, plasmid: pOXA-48 PV-D (blaOXA-48) | 1 µg/mL (≈ 2.1 µM)
Escherichia coli J53, plasmid: pOXA-48 PV-E (blaOXA-48) | 1 µg/mL (≈ 2.1 µM)
Escherichia coli J53, plasmid: pOXA-48 PV-K (blaOXA-48) | 1 µg/mL (≈ 2.1 µM)
Escherichia coli J53, plasmid: pOXA-48 PV-O (blaOXA-48) | 1 µg/mL (≈ 2.1 µM)
Escherichia coli J53, plasmid: pOXA-48 TET (blaOXA-48 replaced by tetC) | 0.025 ± 0.0077 µg/mL (≈ 0.0526 µM)
Escherichia coli J53, plasmid: pOXA-48 WT (blaOXA-48) | 1 µg/mL (≈ 2.1 µM)
Escherichia coli J53, plasmid: pUN4 empty | 0.04 µg/mL and 0.0175 µg/mL
Escherichia coli J53, plasmid: pUN4 with blaCTX-M-15 | 0.118 ± 0.1 µg/mL (≈ 0.249 µM)
Escherichia coli J53, plasmid: pUN4 with blaOXA-48 | 0.5 µg/mL and 1 µg/mL
Escherichia coli J53, plasmid: pUN4 with the DEL allele of blaOXA-48 | 0.02 ± 0.0077 µg/mL (≈ 0.0421 µM)
[1], plasmid: none | 0.00967 ± 0.0041 µg/mL (≈ 0.0203 µM)
[1], plasmid: pBAD18 empty | 0.011 ± 0.0044 µg/mL (≈ 0.0231 µM)
[1], plasmid: pBAD18 with blaCTX-M-14 | 0.417 ± 0.33 µg/mL (≈ 0.876 µM)
[1], plasmid: pBAD18 with blaCTX-M-15 | 0.166 ± 0.17 µg/mL (≈ 0.349 µM)
[1], plasmid: pBAD18 with blaKPC-2 | 0.667 ± 0.26 µg/mL (≈ 1.4 µM)
[1], plasmid: pBAD18 with blaNDM-1 | 2 µg/mL (≈ 4.21 µM)
[1], plasmid: pBAD18 with blaOXA-1 | 0.118 ± 0.19 µg/mL (≈ 0.249 µM)
[1], plasmid: pBAD18 with blaOXA-48 | 0.583 ± 0.2 µg/mL (≈ 1.23 µM)
[1], plasmid: pBAD18 with blaTEM-1 | 0.124 ± 0.19 µg/mL (≈ 0.261 µM)

C[C@@H]1O[C@@H]1P(=O)(O)O [fosfomycin]
[2]
Conditions | MIC [µg/mL]
plasmid: none | 0.583 ± 0.2 (≈ 4.23 µM)
plasmid: pBAD18 empty | 0.5 (≈ 3.62 µM)
plasmid: pBAD18 with blaCTX-M-14 | 0.5 (≈ 3.62 µM)
plasmid: pBAD18 with blaCTX-M-15 | 0.5 (≈ 3.62 µM)
plasmid: pBAD18 with blaKPC-2 | 0.5 (≈ 3.62 µM)
plasmid: pBAD18 with blaNDM-1 | 0.5 (≈ 3.62 µM)
plasmid: pBAD18 with blaOXA-1 | 0.5 (≈ 3.62 µM)
plasmid: pBAD18 with blaOXA-48 | 0.5 (≈ 3.62 µM)
plasmid: pBAD18 with blaTEM-1 | 0.5 (≈ 3.62 µM)

C[C@@H](O)[C@H]1C(=O)N2C(C(=O)O)=C(SCCNC=N)C[C@H]12 [imipenem]
[1]
Conditions | MIC [µg/mL]
plasmid: none | 0.292 ± 0.1 (≈ 0.974 µM)
plasmid: pBAD18 empty | 0.229 ± 0.051 (≈ 0.766 µM)
plasmid: pBAD18 with blaCTX-M-14 | 0.75 ± 0.27 (≈ 2.51 µM)
plasmid: pBAD18 with blaCTX-M-15 | 0.375 ± 0.14 (≈ 1.25 µM)
plasmid: pBAD18 with blaKPC-2 | 1 (≈ 3.34 µM)
plasmid: pBAD18 with blaNDM-1 | 2.5 ± 1.2 (≈ 8.35 µM)
plasmid: pBAD18 with blaOXA-1 | 0.583 ± 0.34 (≈ 1.95 µM)
plasmid: pBAD18 with blaOXA-48 | 1.5 ± 1.2 (≈ 5.01 µM)
plasmid: pBAD18 with blaTEM-1 | 0.458 ± 0.1 (≈ 1.53 µM)

C[C@@H](O)[C@H]1C(=O)N2C(C(=O)O)=C(S[C@@H]3CN[C@H](C(=O)N(C)C)C3)[C@H](C)[C@H]12 [meropenem]
[1]
Conditions | MIC [µg/mL]
plasmid: none | 0.03 (≈ 0.0782 µM)
plasmid: pBAD18 empty | 0.03 (≈ 0.0782 µM)
plasmid: pBAD18 with blaCTX-M-14 | 0.06 (≈ 0.156 µM)
plasmid: pBAD18 with blaCTX-M-15 | 0.06 (≈ 0.156 µM)
plasmid: pBAD18 with blaKPC-2 | 1 (≈ 2.61 µM)
plasmid: pBAD18 with blaNDM-1 | 3.33 ± 1 (≈ 8.69 µM)
plasmid: pBAD18 with blaOXA-1 | 0.552 ± 0.39 (≈ 1.44 µM)
plasmid: pBAD18 with blaOXA-48 | 0.583 ± 0.2 (≈ 1.52 µM)
plasmid: pBAD18 with blaTEM-1 | 0.06 (≈ 0.156 µM)

CO[C@H]1/C=C/O[C@@]2(C)Oc3c(C)c(O)c4c(O)c(c(/C=N/N5CCN(C)CC5)c(O)c4c3C2=O)NC(=O)/C(C)=C\C=C\[C@H](C)[C@H](O)[C@@H](C)[C@@H](O)[C@@H](C)[C@H](OC(C)=O)[C@@H]1C [rifampicin]
[1]
Conditions | MIC [µg/mL]
plasmid: none | 8 (≈ 9.72 µM)
plasmid: pBAD18 empty | 9.33 ± 3.3 (≈ 11.3 µM)
plasmid: pBAD18 with blaCTX-M-14 | 7.33 ± 1.6 (≈ 8.91 µM)
plasmid: pBAD18 with blaCTX-M-15 | 8 (≈ 9.72 µM)
plasmid: pBAD18 with blaKPC-2 | 8 (≈ 9.72 µM)
plasmid: pBAD18 with blaNDM-1 | 8 (≈ 9.72 µM)
plasmid: pBAD18 with blaOXA-1 | 7.33 ± 1.6 (≈ 8.91 µM)
plasmid: pBAD18 with blaOXA-48 | 8 (≈ 9.72 µM)
plasmid: pBAD18 with blaTEM-1 | 8 (≈ 9.72 µM)

CN(C)[C@@H]1C(O)=C(C(N)=O)C(=O)[C@@]2(O)C(O)=C3C(=O)c4c(O)cccc4[C@@](C)(O)[C@H]3C[C@@H]12 [tetracycline]
[1]
Conditions | MIC [µg/mL]
plasmid: none | 0.833 ± 0.26 (≈ 1.88 µM)
plasmid: pBAD18 empty | 0.5 (≈ 1.13 µM)
plasmid: pBAD18 with blaCTX-M-14 | 0.5 (≈ 1.13 µM)
plasmid: pBAD18 with blaCTX-M-15 | 0.5 (≈ 1.13 µM)
plasmid: pBAD18 with blaKPC-2 | 0.5 (≈ 1.13 µM)
plasmid: pBAD18 with blaNDM-1 | 0.5 (≈ 1.13 µM)
plasmid: pBAD18 with blaOXA-1 | 0.5 (≈ 1.13 µM)
plasmid: pBAD18 with blaOXA-48 | 0.5 (≈ 1.13 µM)
plasmid: pBAD18 with blaTEM-1 | 0.667 ± 0.26 (≈ 1.5 µM)

COc1cc(Cc2cnc(N)nc2N)cc(OC)c1OC [trimethoprim]
[1]
Conditions | MIC [µg/mL]
plasmid: none | 0.417 ± 0.13 (≈ 1.44 µM)
plasmid: pBAD18 empty | 0.375 ± 0.14 (≈ 1.29 µM)
plasmid: pBAD18 with blaCTX-M-14 | 0.417 ± 0.13 (≈ 1.44 µM)
plasmid: pBAD18 with blaCTX-M-15 | 0.458 ± 0.1 (≈ 1.58 µM)
plasmid: pBAD18 with blaKPC-2 | 0.375 ± 0.14 (≈ 1.29 µM)
plasmid: pBAD18 with blaNDM-1 | 0.417 ± 0.13 (≈ 1.44 µM)
plasmid: pBAD18 with blaOXA-1 | 0.5 (≈ 1.72 µM)
plasmid: pBAD18 with blaOXA-48 | 0.417 ± 0.13 (≈ 1.44 µM)
plasmid: pBAD18 with blaTEM-1 | 0.458 ± 0.1 (≈ 1.58 µM)
